# Measured values: PubChem BioAssay AID1508642 (National Center for Advancing Translational Sciences (NCATS), 2021)
# Out of some 43,000 compounds screened, about 200 (0.47%) were called active. Roughly 12% stayed inconclusive and do not appear here. Calls follow the shape of the dose curve; as a rule, active = well fitted cell-killing curve with a large enough effect; inconclusive = small, poorly fitted or top-dose-only effect, or effect the other way; inactive = flat fitted curve, though single readings scatter. This is one part of the list.
# Experiment: Cell viability qHTS assay in S16 Pmp22-F2sN cells; also: nearly all actives have a fitted effect of over 65% in size
# Conditions: S16 Pmp22-F2sN Schwann cells (luciferase reporters placed in the Pmp22 gene) viability, CellTiter-Glo, 24 h; series mostly up to 57.5 µM; activity change, negative = cytotoxicity: at the top concentration
# Method in brief: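 S16 Schwann cells carrying the Pmp22-F2sN reporter, seeded in 1536-well format, were exposed to library compounds for 24 h at 37C. Viability was read as CellTiter-Glo luminescence after 15 min at room temperature.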
# % is scaled to controls: 0 for no effect and ±100 for the full control effect.
row,SMILES,"activity change, negative = cytotoxicity"
1,CCOc1ccc(C2CC(=O)c3c([nH]c(C(=O)OCC4CCCCC4)c3C)C2)cc1 (configuration not stated),inactive: -1.35%
2,COCCCNC(=O)c1nn(-c2ccc(C)cc2)nc1CO,inactive: 0.315%
3,CCOc1ccccc1NC(=O)CSc1nccn1-c1cccc(C)c1,inactive: -3.01%
4,COc1ccc2c(Sc3ccc(C)cc3)c(C(=O)NC(C)C)[nH]c2c1,inactive: -1.17%
5,CCOc1ccc(-n2c(=O)c3c(C)c(C)sc3n(CC(=O)NCCc3ccccc3)c2=O)cc1,inactive: -4.02%
6,O=C(CN1C(=O)CSc2ccc(S(=O)(=O)N3CCCC3)cc21)Nc1cccc(Cl)c1,inactive: -3.03%
7,COc1cccc(NC(=O)C(Cc2ccccc2)NS(=O)(=O)c2ccc3c(c2)c(=O)n(C)c(=O)n3C)c1 (configuration not stated),inactive: 24.3%
8,Cc1cccc(CNC(=O)Cn2ccc3cc(S(=O)(=O)N4CCCCCC4)ccc32)c1,inactive: -12.6%
9,CCCc1cc(=O)oc2cc(C)c3c(-c4ccccc4)coc3c12,inactive: 17.9%
10,Cc1ccc(Nc2c(C(C)C)c(C)c(C#N)c3nc4ccccc4n23)cc1,inactive: -0.665%
11,CCCNC(=O)CN1C(=O)CSc2ccc(S(=O)(=O)N3CCC(C)CC3)cc21,inactive: -1.03%
12,Cc1ccccc1-c1noc(-c2ccc(NCc3ccco3)c([N+](=O)[O-])c2)n1,inactive: 10.8%
13,CCN(CC)C(=O)C1CCN(S(=O)(=O)c2c(C)noc2/C=C/c2cccc(OC)c2)CC1,inactive: -13.8%
14,CCC(C)NC(=O)CCCc1nnc2n(CC(C)C)c(=O)c3sccc3n12 (configuration not stated),inactive: 16.7%
15,CN(C)CCNC(=O)c1ccc(-c2nn(C)c(=O)c3ccccc23)cc1,inactive: -0.625%
16,CSc1ccc(-c2nc3cccc(C)n3c2Nc2ccc(Cl)cc2)cc1,inactive: -5.72%
17,COc1ccccc1N1C(=O)N(CC(=O)C(C)(C)C)c2ccccc2S1(=O)=O,inactive: 6.34%
18,O=C(O)c1ccc(NC(=O)c2cc(S(=O)(=O)N3CCCCC3)c(Cl)cc2Cl)cc1,inactive: 12.1%
19,Cc1cccc(C(=O)NNc2ncnc3c2cnn3-c2ccc(C)cc2C)c1,inactive: 18.4%
20,COc1cccc(C(=O)Nc2nnc(S(=O)(=O)N3CCCC3)s2)c1,inactive: -8.49%
21,Cc1ccc(Cn2cnc3nc4c(cc3c2=O)CC(C)CC4)cc1 (configuration not stated),inactive: -1.01%

row,SMILES,"activity change, negative = cytotoxicity"
1,CC(C)c1ccc(S(=O)(=O)c2cnc(SCC(=O)Nc3ccc4c(c3)OCCO4)[nH]c2=O)cc1,inactive: -2.88%
2,CCOc1ccc(CCNC(=O)c2nn(C)c3c2CSc2ccccc2-3)cc1,inactive: 2.65%
3,CCOC(=O)c1c(NC(=O)C2c3ccccc3Oc3ccccc32)sc(C)c1CC,inactive: -0.825%
4,O=C(NCc1ccc(F)cc1)C1(c2cccs2)CCOCC1,inactive: 11.7%
5,Cc1ccc(OCC(=O)Nc2nnc(S(=O)(=O)N3CCCCCC3)s2)cc1,inactive: -6.73%
6,COc1cc(Nc2nc3c(S(=O)(=O)c4ccc(C)c(C)c4)nnn3c3ccsc23)cc(OC)c1,inactive: 8.65%
7,CC(C)(C)C1CCc2nc(NC(=O)Cc3ccccc3)sc2C1 (configuration not stated),inactive: -3.35%
8,CCn1c(=O)cc(OCC(=O)N(C)c2cc(Cl)ccc2C)c2ccccc21,inactive: -5.3%
9,Cc1ccc(-c2cn3c(n2)sc2cc(C(=O)NCCCc4ccccc4)ccc23)c(C)c1,inactive: -25.7%
10,CCCCN(CCCNC(=O)c1cc(Nc2ccc(OC)c(OC)c2)nc2ccccc12)c1ccccc1,inactive: 16.8%
11,CC1CCCN(S(=O)(=O)c2ccc3c(c2)c(=O)nc2ccccn23)C1 (configuration not stated),inactive: 4.26%
12,CCOc1ccc(CNCc2c(C(=O)O)c(C)n(Cc3c(F)cccc3Cl)c2C)cc1OC,inactive: -5.9%
13,COc1ccccc1-c1noc(-c2ccc(NCC3CCCO3)c([N+](=O)[O-])c2)n1 (configuration not stated),inactive: -19.7%
14,Cc1ccc2oc(=O)n(CCCOc3ccccc3Cl)c2c1,inactive: -6.43%
15,Cc1cc(C)c(S(=O)(=O)NCC(c2ccc(N(C)C)cc2)N2CCOCC2)c(C)c1 (configuration not stated),inactive: -0.399%
16,CCc1cccc(NC(=O)CN(C)S(=O)(=O)c2ccc3c(c2)CCCN3C(C)=O)c1,inactive: -7.92%
17,CCOC(=O)c1cnc2c(C)c(Cl)ccc2c1Nc1ccc(N2CCOCC2)cc1,inactive: 2.89%
18,CC(CCc1ccccc1)NC(=O)Cn1c(=O)nc(-c2ccccc2)c2ccccc21 (configuration not stated),inactive: 5.4%
19,Cc1ccccc1Nc1c(-c2cccnc2)nc2ccc(Cl)cn12,inactive: -19%
20,CCc1nn2c(=O)c(S(=O)(=O)Nc3ccc(Cl)cc3)c(C)nc2s1,inactive: -7.08%
21,CCCCN(C)CCNC(=O)CN1C(=O)CSc2ccc(S(=O)(=O)N3CCOCC3)cc21,inactive: 18.7%

row,SMILES,"activity change, negative = cytotoxicity"
1,Cc1cc(Nc2cccc(C(F)(F)F)c2)nc2ccc(NC(=O)c3cccc(Cl)c3)cc12,inactive: -19.5%
2,O=C(Cn1cc(S(=O)(=O)c2ccccc2)c(=O)c2cc(Cl)ccc21)Nc1ccc2c(c1)OCO2,inactive: 9.15%
3,O=S(=O)(c1cccc2ccccc12)N1CCN(c2ccc(Cl)c(Cl)c2)CC1,inactive: 2.28%
4,COc1ccc(NC(C)=O)cc1NC(=O)CN1CCN(c2ccc(F)cc2)CC1,inactive: 9.46%
5,CCOc1cc(C(=O)NCC(c2ccc(N(C)C)cc2)N2CCOCC2)cc(OCC)c1OCC (configuration not stated),inactive: 13.4%
6,Cc1ccc(CNC(=O)c2ccc(CS(=O)Cc3cccc(Cl)c3)o2)cc1 (configuration not stated),inactive: 5.55%
7,COc1ccc(-c2cc(C(F)(F)F)nc(SCC(=O)NCC(C)C)n2)cc1OC,inactive: 2.41%
8,COc1ccccc1NC(=O)C1=C(C)Nc2nc3ccccc3n2C1c1cccc(OC)c1OC (configuration not stated),inactive: -19.4%
9,Cc1ccn2c(=O)cc(COc3cccc(NC(=O)Nc4cccc(Cl)c4C)c3)nc2c1,inactive: 7.96%
10,COc1ccc(C)cc1Nc1cc(C)nc(C)n1,inactive: -1.74%
11,O=C(CN1C(=O)c2cccnc2Oc2ccc(Cl)cc21)Nc1cccc(C(F)(F)F)c1,inactive: -8.97%
12,CC(C)Oc1ccc(C(=O)Nc2c(C(=O)Nc3cccc(F)c3)oc3ccccc23)cc1,inactive: 13.8%
13,O=C(CCn1ccc2cc(S(=O)(=O)N3CCCC3)ccc21)NCc1ccccc1Br,inactive: -19.4%
14,COc1ccc(CNC(=O)CCc2c(C)c3cc4c(C)c(C)oc4cc3oc2=O)cc1OC,inactive: -5.66%
15,CC(C)c1ccc(OCC(=O)N(Cc2cccs2)C2CCS(=O)(=O)C2)cc1 (configuration not stated),inactive: -8.37%
16,CCc1nc2nc(C)cc(Nc3cccc(C)c3C)n2n1,inactive: -19.3%
17,CCc1ccc(NC(=O)CN2C(=O)C3(SCC(=O)N3c3ccc(F)c(F)c3)c3ccccc32)cc1 (configuration not stated),inactive: -12.3%
18,Cc1ccc(N2CC(C(=O)Nc3ccc(N(C)C)cc3)CC2=O)cc1Cl (configuration not stated),inactive: -1.03%
19,Fc1ccccc1N1CCN(c2nc3ccccc3c3nc(-c4ccccc4)nn23)CC1,inactive: -10.2%
20,CSc1ccc(-c2nnc(NC(=O)c3ccc4c(c3)OCCO4)o2)cc1,inactive: -21.3%
